In PubChem BioAssay (NCI):
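Cells were grown in 96-well plates and exposed to each compound for 48 hours at five concentrations; endpoints were interpolated linearly between bracketing concentrations, or set to the highest concentration if not reached. Abbreviation: GI50, concentration required for 50% inhibition of growth. TGI: total growth inhibition.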

System: NCI-H322M lung
Assay: growth of human tumour cells (NCI), 48 h

Structure (SMILES)	GI50	TGI
Cn1cc(-c2nc(N)nnc2-c2c[nH]c3ccc(Br)cc23)c2cc(Br)cnc21	0.62 µM	19.5 µM
COc1ccc(C(=O)/C=C/c2ccc3ccccc3c2)cc1S(N)(=O)=O	2.3 µM	8.36 µM
Cn1cc(-c2cc(N)n3nc(-c4c[nH]c5ccccc45)cc3n2)c2cc(Br)ccc21	2.13 µM	5.82 µM
Oc1ccc(Cl)c(Nc2nc(SCCN3CCOCC3)nc3c2cnn3CC(Cl)c2ccc(Br)cc2)c1 (stereo not drawn)	35.1 µM	> 100 µM
